Data as given in PubChem BioAssay AID588342 (National Center for Advancing Translational Sciences (NCATS), 2011).
Screen size: about 360,000 compounds; about 25,000 (6.9%) were called active. The shares of active, inactive and inconclusive entries below differ from those in the screen. Calls follow the shape of the dose curve; as a rule, active = well fitted inhibition curve with a large enough effect; inconclusive = small, poorly fitted or top-dose-only effect; inactive = flat fitted curve, though single readings scatter. Potencies of inconclusive entries are doubtful fits and often do not repeat.

Target: Luciferin 4-monooxygenase (Photinus pyralis) (UniProt P08659)
Test: qHTS profiling assay for firefly luciferase inhibitor/activator using purifed enzyme and Km concentrations of substrates (counterscreen for miR-21 project); also: nearly all actives have a fitted effect of over 55% in size
Conditions: purified FLuc, luminescence inhibition; series mostly up to 57.5 µM
How it was run: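 Purified P. pyralis luciferase, 10 nM final, with Km-level 10 uM D-luciferin and 10 uM ATP in 50 mM Tris acetate pH 7.5, 10 mM Mg acetate, 0.01% Tween-20, 0.05% BSA; 6-point qHTS titration about 60 µM downward; luminescence read.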
Potency is read from the fitted curve at half-maximal effect; tags tell the direction and shape of the fitted curve.

UniProt P08659, sequence (P08659 whole entry, looked up): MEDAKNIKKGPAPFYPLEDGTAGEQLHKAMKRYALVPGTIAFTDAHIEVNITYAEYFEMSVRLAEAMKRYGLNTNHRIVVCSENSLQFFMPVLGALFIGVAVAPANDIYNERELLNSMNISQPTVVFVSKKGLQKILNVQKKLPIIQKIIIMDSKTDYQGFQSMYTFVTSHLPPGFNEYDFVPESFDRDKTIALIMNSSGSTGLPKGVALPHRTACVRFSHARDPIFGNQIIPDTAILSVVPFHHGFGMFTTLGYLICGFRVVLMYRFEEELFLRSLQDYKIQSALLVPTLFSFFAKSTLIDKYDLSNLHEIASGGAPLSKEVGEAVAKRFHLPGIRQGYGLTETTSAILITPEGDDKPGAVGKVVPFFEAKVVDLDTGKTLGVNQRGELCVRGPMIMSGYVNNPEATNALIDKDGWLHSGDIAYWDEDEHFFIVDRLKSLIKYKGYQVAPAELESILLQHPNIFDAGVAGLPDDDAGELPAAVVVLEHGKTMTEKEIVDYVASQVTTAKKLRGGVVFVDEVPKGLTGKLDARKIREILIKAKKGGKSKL

SMILES	Potency
CC(=O)N1CCN(S(=O)(=O)c2cccc(C(=O)Nc3ccc(C)cn3)c2)CC1	inconclusive: 23.9 µM [inhibitor, single point]
COC(=O)Cc1ccc2c3ccccc3n(C)c2c1	inconclusive: 30.1 µM [inhibitor, single point]
Cc1c(C(=O)Nc2cccc([N+](=O)[O-])c2)cnn1-c1ccccc1	active: 9.53 µM
COc1ccc(C(=O)c2ccc(N3CCOCC3)cc2)c(OC)c1	inconclusive: 37.9 µM [inhibitor, partial curve, poor fit]
COc1ccc2nc(NC3=NCCC3)sc2c1	active: 12 µM
COc1ccc(OCC(=O)Nc2cccc(C(C)=O)c2)cc1	inconclusive: 21.3 µM [inhibitor, single point]
Cc1cc(Cl)ccc1NC(=O)C1COc2ccccc2O1 (stereo not given)	inconclusive: 30.1 µM [inhibitor, partial curve, poor fit]
Cc1ccc(-n2nc3c(=O)n(CC(=O)NC(C)CCc4ccccc4)nc(C)c3c2C)cc1 (stereo not given)	inactive
Cc1ccc(C2C3=C(CC(C)(C)CC3=O)N(CCN3CCOCC3)C3=C2C(=O)CC(C)(C)C3)cc1	inactive
O=C(CSc1ccccc1)N1CCN(c2ccccc2)CC1	inconclusive: 21.3 µM [inhibitor, partial curve, poor fit]
O=C1CCc2cc(S(=O)(=O)NC(Cc3ccccc3)C(=O)N3CCN(c4ccccn4)CC3)ccc2N1 (stereo not given)	inactive
Cc1ccc(Nc2cccccc2=O)cc1	active: 15.1 µM
O=C(CSc1nnc(Nc2ccccc2F)s1)Nc1cccc(S(=O)(=O)N2CCCCC2)c1	active: 13.5 µM
COc1ccc(S(=O)(=O)Oc2cccc(/C=N/N=C3/NC(=O)C(CC(=O)O)S3)c2)cc1 (stereo not given)	inconclusive: 21.3 µM [inhibitor, partial curve, poor fit]
Cc1ccc(C(=O)COC(=O)CCC(=O)Nc2ccc(Oc3ccccc3)cc2)cc1C	inconclusive: 26.9 µM [inhibitor, partial curve]
Oc1c(C(c2ccccc2)N2CCN(c3ccccc3)CC2)sc2nc(-c3ccco3)nn12 (stereo not given)	inconclusive: 23.9 µM [inhibitor, partial curve, poor fit]
O=C(C1CCC(CNS(=O)(=O)c2cccs2)CC1)N1CCN(c2ccc(F)cc2)CC1 (stereo not given)	inactive
COc1ccc(C(=O)NC(=S)Nc2nnn(C)n2)cc1	inconclusive: 37.9 µM [inhibitor, partial curve, poor fit]
COc1ccc(CCC(=O)Nc2sccc2C#N)cc1	active: 16.9 µM
Cc1ccc2nc(Cl)c(/C=N/NC(=O)c3ccccc3O)cc2c1	inconclusive: 26.9 µM [inhibitor, single point]
